{
  "source": "PubChem BioAssay AID1461",
  "about": "(National Center for Advancing Translational Sciences (NCATS), 2008)",
  "note": "In all, about 220,000 compounds went through this assay and about 2,300 (1%) were called active. This list was built around the results that the source calls inconclusive (neither active nor inactive); the mix of calls is not that of the screen. Calls follow the shape of the dose curve; as a rule, active = well fitted inhibition curve with a large enough effect; inconclusive = small, poorly fitted or top-dose-only effect, or effect the other way; inactive = no such curve, though single readings can be large or run the other way. Potencies of inconclusive entries are left out as doubtful fits. Potency is read from the fitted curve at half-maximal effect; tags tell the direction and shape of the fitted curve.",
  "data": [
    {"biological_target": "Neuropeptide S receptor (Homo sapiens) (UniProt Q6W5P4)", "sequence (Q6W5P4 whole entry, looked up)": "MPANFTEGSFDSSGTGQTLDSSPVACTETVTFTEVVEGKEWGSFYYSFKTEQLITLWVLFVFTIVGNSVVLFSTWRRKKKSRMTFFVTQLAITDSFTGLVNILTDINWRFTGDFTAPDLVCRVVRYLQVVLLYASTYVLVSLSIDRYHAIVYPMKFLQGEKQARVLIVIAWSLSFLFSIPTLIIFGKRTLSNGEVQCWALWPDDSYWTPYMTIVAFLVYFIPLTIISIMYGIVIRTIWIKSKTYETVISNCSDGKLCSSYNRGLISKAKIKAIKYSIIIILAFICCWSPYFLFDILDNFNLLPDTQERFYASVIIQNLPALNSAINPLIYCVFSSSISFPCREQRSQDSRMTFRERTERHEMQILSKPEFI", "assay": "qHTS Assay for Antagonists of the Neuropeptide S Receptor: cAMP Signal Transduction; also: nearly all actives have a fitted effect of over 50% in size", "details": "CHO-NPSR cells, cAMP TR-FRET, antagonist mode; series mostly up to 38.3 µM", "values": [
      {"smiles": "COc1ccc(-c2c(C#N)c(C)nc3c2C(=O)c2ccccc2-3)cc1", "Potency": "inconclusive [inhibitor, single point]"},
      {"smiles": "COc1ccccc1C(=O)Oc1ccc(C(C)(C)C)cc1", "Potency": "inconclusive [inhibitor, single point]"},
      {"smiles": "N#Cc1cc(Oc2cccnc2)c(Oc2cccnc2)cc1C#N", "Potency": "inactive"},
      {"smiles": "COc1ccccc1/C=C/C=N/NC(=O)c1cc(-c2ccc(C)o2)[nH]n1", "Potency": "inconclusive [activator, partial curve]"},
      {"smiles": "CCCN=Cc1c(CCC)[nH]n(-c2nc3ccccc3s2)c1=O", "Potency": "inconclusive [inhibitor, partial curve]"},
      {"smiles": "Cc1nnc(SCC(=O)N/N=C/c2cn(-c3ccccc3)nc2-c2ccccc2)n1-c1ccccc1", "Potency": "inconclusive [inhibitor, partial curve]"},
      {"smiles": "N#CC(c1ccccc1O)N1N=C(c2ccccc2)CC1c1ccccc1", "note": "(centres undefined)", "Potency": "inconclusive [inhibitor, single point]"},
      {"smiles": "O=C(c1cc(COc2ccc(F)cc2Cl)on1)N1CCC(OCc2cccnc2)CC1", "Potency": "inactive"},
      {"smiles": "CC(C)CN1CCC(=O)N([C@H](CSc2ccc(Br)cc2)Cc2ccccc2)CC1", "Potency": "inconclusive [inhibitor, single point]"},
      {"smiles": "Cc1ccccc1NC(=O)C(C)c1ccc(-c2ccccc2)c(F)c1", "note": "(centres undefined)", "Potency": "inconclusive [inhibitor, partial curve, poor fit]"},
      {"smiles": "COc1ccc(CCNc2cc(C)nc3c(-c4ccc(Cl)cc4)c(C)nn23)cc1OC", "Potency": "inconclusive [inhibitor, single point]"},
      {"smiles": "CCOC(=O)c1c(C)n(-c2ccc(C)cc2)c2c(CC(C)=O)c(Br)c(OC)c(O)c12", "Potency": "active: 10 µM"},
      {"smiles": "COc1ccc(/C=C2\\CCCC3C2=NN(C(=O)c2scnc2C)C3c2ccc(OC)cc2)cc1", "note": "(centres undefined)", "Potency": "inconclusive [inhibitor, partial curve]"},
      {"smiles": "COc1ccc(Cl)cc1Nc1nc(-c2sc(NC(=O)c3ccco3)nc2C)cs1", "Potency": "inconclusive [inhibitor, single point]"},
      {"smiles": "CC(=O)NC(NC(=S)Nc1ccc(S(N)(=O)=O)cc1)C(Cl)(Cl)Cl", "note": "(centres undefined)", "Potency": "inactive"},
      {"smiles": "COc1cc(C(CCN2CCN(c3ccccc3)CC2)c2c(OC)cc(OC)c3c(C)cc(=O)oc23)cc(OC)c1OC", "note": "(centres undefined)", "Potency": "active: 6.31 µM"},
      {"smiles": "O=S(=O)(Cc1cc(Oc2ccccc2)nc(-c2ccccc2)n1)c1ccccc1", "Potency": "inconclusive [inhibitor, single point]"},
      {"smiles": "CC(=O)NNC(=O)c1sc(=S)n2c1[nH]c(=O)c1sccc12", "Potency": "inactive"},
      {"smiles": "CCOC(=O)C1C(c2cc(OC)c(OC)c(OC)c2)NC(=S)NC1(O)C(F)(F)F", "note": "(centres undefined)", "Potency": "inactive"},
      {"smiles": "Cc1sc2nc(C3CC3)nc(SCC(=O)N3c4ccccc4CC3C)c2c1C", "note": "(centres undefined)", "Potency": "inconclusive [inhibitor, partial curve]"},
      {"smiles": "CCOc1cc(CNc2ccc(OC)cc2)cc(Br)c1OCC(=O)NC(C)(C)C", "Potency": "inconclusive [inhibitor, partial curve, poor fit]"},
      {"smiles": "Cc1ccc(C(=O)C(c2ccccc2)N2Cc3ccccc3C2=N)cc1", "note": "(centres undefined)", "Potency": "inconclusive [inhibitor, single point]"},
      {"smiles": "Cc1ccc(S(=O)(=O)Nc2ccc(C(=O)OCC(=O)N(CCC#N)c3ccccc3)cc2)cc1C", "Potency": "inactive"},
      {"smiles": "Cc1ccc(/C=C/C(=O)Nc2cccc3ncccc23)o1", "Potency": "inactive"},
      {"smiles": "CCC(C)NC(=O)CO/N=C/c1ccc(C(=O)OC)cc1", "note": "(centres undefined)", "Potency": "inactive"},
      {"smiles": "Cc1ccccc1-n1c(-c2ccc3ccccc3n2)n[nH]c1=S", "Potency": "inconclusive [activator, partial curve, poor fit]"},
      {"smiles": "CNC(=O)c1sc(-c2ccccc2)nc1C", "Potency": "inconclusive [activator, single point]"},
      {"smiles": "CC(C)OC(=O)c1cc2c(ccn2C)n1CC(=O)N(Cc1ccccc1)c1ccc(F)cc1", "Potency": "inconclusive [inhibitor, single point]"},
      {"smiles": "COc1c(C)cccc1C(=O)NC(=S)Nc1cccc2nsnc12", "Potency": "active: 7.94 µM"},
      {"smiles": "O=C(O)c1cc(-c2ccc3c(c2)OCO3)nc2ccc(Br)cc12", "Potency": "active: 6.31 µM"},
      {"smiles": "CC(C)Sc1oc(-c2ccco2)nc1S(=O)(=O)c1ccc(F)cc1", "Potency": "inconclusive [inhibitor, single point]"},
      {"smiles": "O=C(Nc1ccc2c(c1)CCC2)c1cc(S(=O)(=O)Nc2ccc(F)cc2)c(Cl)cc1Cl", "Potency": "inconclusive [inhibitor, single point]"},
      {"smiles": "CC(C)(C)OC(=O)NCCCC[C@H](NC(=O)c1[nH]cnc1C(=O)Nc1ccccc1)C(=O)OC(C)(C)C", "Potency": "inconclusive [inhibitor, single point]"},
      {"smiles": "O=C(O)CCCC[C@@H]1CCSS1", "Potency": "inactive"},
      {"smiles": "Cn1c(N)c(C(=O)COC(=O)COc2ccccc2C#N)c(=O)n(C)c1=O", "Potency": "inconclusive [inhibitor, single point]"},
      {"smiles": "COc1ccc(C2c3ccc4ccccc4c3Oc3ncn(CCCO)c(=N)c32)cc1", "note": "(centres undefined)", "Potency": "inconclusive [inhibitor, single point]"},
      {"smiles": "COc1ccc(OC)c(NC(=O)c2nnn(CCc3ccccc3)c2N)c1", "Potency": "inconclusive [inhibitor, full curve, poor fit]"},
      {"smiles": "COc1ccc(-c2cnc(OC(C)(C)C)nc2OC(C)(C)C)cc1OC", "Potency": "inconclusive [inhibitor, single point]"},
      {"smiles": "COc1c(Cl)cc(Cl)cc1/C=C/C(=O)c1ccc(NC(=O)c2cccs2)cc1", "Potency": "inconclusive [inhibitor, single point]"},
      {"smiles": "O=C1c2ccccc2C(=O)N1CCc1nc2ccccc2c(=O)n1CCCn1ccnc1", "Potency": "inconclusive [inhibitor, single point]"},
      {"smiles": "O=C(NCC1CCCO1)c1c(O)c2cccc3c2n(c1=O)CC3", "note": "(centres undefined)", "Potency": "inconclusive [inhibitor, partial curve]"},
      {"smiles": "N#Cc1cc2c(nc1SCc1cccc(Cl)c1)CCCCC2", "Potency": "inconclusive [inhibitor, partial curve]"},
      {"smiles": "Cc1ccc(-c2nnc3ccc(SCC(=O)N4CCCc5ccccc54)nn23)cc1", "Potency": "inactive"},
      {"smiles": "CC1CN(c2ncnc3c2oc2ccccc23)CC(C)O1", "note": "(centres undefined)", "Potency": "inactive"},
      {"smiles": "Cc1ccc(S(=O)(=O)NC(c2ccccc2)C(C)C(=O)n2nc(C)cc2C)cc1", "note": "(centres undefined)", "Potency": "inconclusive [inhibitor, partial curve, poor fit]"},
      {"smiles": "O=S(=O)(N1CCCCC1)N1CCN(CC(O)COc2ccc3cc(Br)ccc3c2)CC1", "note": "(centres undefined)", "Potency": "inconclusive [inhibitor, single point]"},
      {"smiles": "Cc1ccc(C(=O)N/C(=C\\c2ccc(Br)cc2)c2nc(=S)[nH][nH]2)cc1", "Potency": "inconclusive [inhibitor, single point]"},
      {"smiles": "CC(C)C[C@H](NC(=O)CCCn1nnc2ccccc2c1=O)C(=O)O", "Potency": "inconclusive [activator, single point]"},
      {"smiles": "Cc1ccnc(NC(=O)c2ccc3c(c2)OCO3)c1", "Potency": "inactive"},
      {"smiles": "Cc1cc(S(=O)(=O)N2CCN(c3ccccc3O)CC2)c(C)s1", "Potency": "inactive"},
      {"smiles": "CCOC(=O)N1CCC(N2C(=O)c3ccccc3C2Nc2ccc(S(=O)(=O)N3CCCCC3)cc2)CC1", "note": "(centres undefined)", "Potency": "active: 10 µM"},
      {"smiles": "Cc1c(NC(=O)c2ncn[nH]2)cccc1-c1nc2ccccc2s1", "Potency": "inconclusive [inhibitor, single point]"},
      {"smiles": "Cc1sc2ncnc(NCc3ccccc3)c2c1C", "Potency": "inactive"},
      {"smiles": "Cc1cc(Cl)ccc1OCC(=O)NCCOc1nc(N2CCCCC2)nc(N2CCOCC2)n1", "Potency": "inconclusive [inhibitor, partial curve]"},
      {"smiles": "O=C(Nc1ncccc1Cl)C(Sc1ccccc1)c1ccccc1", "note": "(centres undefined)", "Potency": "inconclusive [inhibitor, single point]"},
      {"smiles": "Cc1ccc(C)c(N2CCN(C(=O)CCCCn3c(=O)[nH]c4ccccc4c3=O)CC2)c1", "Potency": "inconclusive [inhibitor, single point]"},
      {"smiles": "COc1ccc(-c2cc(C(=O)OCC(=O)N(C)C)c3ccccc3n2)cc1", "Potency": "inconclusive [inhibitor, full curve, poor fit]"},
      {"smiles": "CCCCNc1nc2ccccc2nc1Cl", "Potency": "inconclusive [inhibitor, single point]"},
      {"smiles": "CC(=O)Oc1ccc(OC(C)=O)c(SCCCCCN2CCOCC2)c1", "Potency": "inconclusive [inhibitor, single point]"},
      {"smiles": "CCOc1cc(CNCCCN2CCOCC2)cc(Br)c1OCc1ccccc1Cl", "Potency": "inconclusive [activator, single point]"},
      {"smiles": "Cc1ccc(/C=N/n2c(COc3ccccc3)n[nH]c2=S)s1", "Potency": "inconclusive [inhibitor, full curve, poor fit]"},
      {"smiles": "CCOc1ccc(/C=N/NC(=O)Nc2ccccc2)cc1", "Potency": "inactive"},
      {"smiles": "COc1cc(NC(=O)CCN2CCN(c3ccccc3F)CC2)cc(OC)c1", "Potency": "inconclusive [inhibitor, single point]"},
      {"smiles": "O=[N+]([O-])c1cc(F)c(N2CCOCC2)cc1N1CCCCC1", "Potency": "inactive"},
      {"smiles": "CCOC(=O)c1sc2nc(CC(=O)OC)nc(NCC(=O)OC)c2c1C", "Potency": "inactive"},
      {"smiles": "COc1cc(C(=O)N2CCN(c3cc(Cl)ccc3Cl)CC2)cc(OC)c1OC", "Potency": "inactive"},
      {"smiles": "COc1ccc(-c2nnc(NC(=O)C(C)C)o2)cc1", "Potency": "inactive"},
      {"smiles": "CCN(CC)S(=O)(=O)c1ccc2oc(C(=O)N3CCCCCC3)c(C)c2c1", "Potency": "inconclusive [inhibitor, partial curve]"},
      {"smiles": "C=CCNc1nc(Nc2ccc(-c3nc4ccccc4o3)cc2)nc(N2CCOCC2)n1", "Potency": "inconclusive [inhibitor, single point]"}
    ]}
  ]
}
